Values joined by “and” are separate entries in the source; they are usually repeats but may differ in a detail not shown here. Equal entries are not always repeated. Hit rate of the full screen: of about 220,000 compounds, about 5,700 (2.6%) were called active. The shares of active, inactive and inconclusive entries below differ from those in the screen. Calls come from the whole dose curve; as a rule, active = well fitted inhibition curve with a large enough effect; inconclusive = small, poorly fitted or top-dose-only effect; inactive = no such curve, though single readings can be large or run the other way. A potency beside an inconclusive call is a rough fit, not a confirmed value.
target: Lysine-specific demethylase 5B (Homo sapiens) (UniProt Q9UGL1); assay: Primary screen for KDM5B Histone Demethylases FDH-coupled qHTS; conditions: FDH-coupled NADH fluorescence (FDH is formaldehyde dehydrogenase); series mostly up to 57.7 µM; note: nearly all actives have a fitted effect of over 70% in size
In short: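 KDM5BΔAP (200 nM final) in 50 mM HEPES pH 7.5, 0.01% Tween-20 was preincubated 10 min at RT with compound over a concentration range. Substrate mix (H3K4me3 12.5 µM, α-KG 25 µM, Fe²⁺, ascorbate, NAD⁺, FDH) was added, and NADH fluorescence change over 30 min gave dose-response curves.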
Potency is the fitted concentration of half-maximal effect; tags give direction and shape of the fitted curve.

Sequence of UniProt Q9UGL1 (Q9UGL1 whole entry, looked up): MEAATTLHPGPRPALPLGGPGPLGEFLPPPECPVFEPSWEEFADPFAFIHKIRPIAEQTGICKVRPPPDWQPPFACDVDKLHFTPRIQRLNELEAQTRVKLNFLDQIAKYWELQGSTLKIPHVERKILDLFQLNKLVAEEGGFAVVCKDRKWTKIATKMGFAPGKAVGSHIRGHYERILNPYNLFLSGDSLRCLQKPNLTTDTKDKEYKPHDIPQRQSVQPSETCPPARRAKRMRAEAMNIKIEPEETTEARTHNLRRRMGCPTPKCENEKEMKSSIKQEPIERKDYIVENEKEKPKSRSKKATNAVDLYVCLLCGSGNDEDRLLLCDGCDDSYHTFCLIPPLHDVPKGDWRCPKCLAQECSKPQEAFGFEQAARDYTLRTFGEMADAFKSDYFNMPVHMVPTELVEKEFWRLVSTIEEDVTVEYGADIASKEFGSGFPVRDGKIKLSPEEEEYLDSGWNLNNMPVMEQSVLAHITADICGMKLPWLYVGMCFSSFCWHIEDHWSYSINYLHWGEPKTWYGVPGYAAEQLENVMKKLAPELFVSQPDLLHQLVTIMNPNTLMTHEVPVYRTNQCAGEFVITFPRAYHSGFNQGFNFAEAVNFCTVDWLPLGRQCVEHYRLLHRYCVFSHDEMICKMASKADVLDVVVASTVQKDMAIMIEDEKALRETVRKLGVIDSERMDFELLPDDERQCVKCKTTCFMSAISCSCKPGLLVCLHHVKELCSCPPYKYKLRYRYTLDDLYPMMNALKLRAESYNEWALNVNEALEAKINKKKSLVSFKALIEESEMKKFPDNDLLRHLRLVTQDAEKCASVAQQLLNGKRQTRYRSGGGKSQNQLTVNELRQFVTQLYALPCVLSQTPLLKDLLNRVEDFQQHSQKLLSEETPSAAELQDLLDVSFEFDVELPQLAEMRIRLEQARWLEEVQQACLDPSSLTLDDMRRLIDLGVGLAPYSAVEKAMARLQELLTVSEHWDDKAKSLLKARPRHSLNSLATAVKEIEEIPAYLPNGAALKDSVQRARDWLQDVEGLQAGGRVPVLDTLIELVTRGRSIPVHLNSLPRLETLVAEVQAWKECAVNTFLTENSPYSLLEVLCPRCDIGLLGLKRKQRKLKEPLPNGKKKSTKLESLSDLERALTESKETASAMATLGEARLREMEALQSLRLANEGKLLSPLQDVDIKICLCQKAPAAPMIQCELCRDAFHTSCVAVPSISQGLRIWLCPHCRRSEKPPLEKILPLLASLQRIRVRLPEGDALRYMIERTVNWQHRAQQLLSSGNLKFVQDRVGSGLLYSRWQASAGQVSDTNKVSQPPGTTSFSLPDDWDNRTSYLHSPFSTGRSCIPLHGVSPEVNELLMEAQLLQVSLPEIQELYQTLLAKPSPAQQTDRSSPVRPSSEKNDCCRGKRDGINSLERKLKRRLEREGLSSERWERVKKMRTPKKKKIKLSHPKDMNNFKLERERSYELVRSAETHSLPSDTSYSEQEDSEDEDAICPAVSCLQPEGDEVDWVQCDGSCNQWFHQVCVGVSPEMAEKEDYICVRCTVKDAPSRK

| SMILES | Potency |
| --- | --- |
| CCOc1ccc(-c2nc(C3CC(=O)N(c4ccc(F)c(Cl)c4)C3)no2)cc1OCC (configuration not stated) | active: 31.6 µM |
| Cc1cc(OC(C)C(=O)NCCCN(C)C)c2c(C)cc(=O)oc2c1 (configuration not stated) | inconclusive: 22.4 µM [inhibitor, partial curve, poor fit] |
| COc1ccc(-c2cc(N3CCCC(NC(=O)c4ccc(N(C)C)cc4)C3)n[nH]2)cc1 (configuration not stated) | active: 25.1 µM |
| C[C@H]1[C@@H]2[C@@H](O)C([C@H](C)C(=O)NCc3cccnc3)CC[C@@]2(C)CC[C@@H]1NC(=O)c1ccc(C#N)cc1 (some centres not stated) | inconclusive: 11.2 µM [inhibitor, partial curve, poor fit] |
| O=C(c1ccoc1)N1CC(Oc2cccc(-c3nc(-c4ccccc4)no3)c2)C1 | inconclusive: 28.2 µM [inhibitor, single point] |
| CC(=O)Nc1ccc(C)c(NC(=O)c2nc(-c3ccccc3)oc2C)c1 | inactive |
| COc1ccc(-c2nc(CS(=O)CC(=O)NCc3ccc(C)cc3)c(C)o2)cc1OC (configuration not stated) | inconclusive: 11.2 µM [inhibitor, partial curve, poor fit] |
| COc1ccc2c(CNc3ccc(C)cc3)cc(=O)oc2c1 | inconclusive: 22.4 µM [inhibitor, single point] |
| CSc1nnc(-c2ccccc2NC(=O)c2cccc(S(=O)(=O)N3CCCCC3)c2)o1 | inactive |
| c1coc(-c2nc3ccncc3[nH]2)c1 | inconclusive: 141 µM [inhibitor, partial curve, poor fit] and active: 31.6 µM |
| Cc1ccccc1NC(=O)Nc1ccnn1C1CCN(C(=O)[C@@H](N)CO)CC1 | inconclusive: 7.94 µM [inhibitor, full curve, poor fit] |
| O=C(CCn1cnc2ccccc2c1=O)N1CCCC(Nc2ccccc2)C1 (configuration not stated) | inactive |
| N#Cc1nc(COc2ccc(Br)cc2)oc1N1CCCCCC1 | inconclusive: 39.8 µM [inhibitor, single point] |
| COc1ccc(Cn2c(C)c(CNCc3cc(OC)c(OC)c(OC)c3)c(C(=O)O)c2C)cc1 | inactive |
| O=C1CC(c2ccccc2)N(Cc2ccncc2)CCCN(C(=O)CC2CCCC2)CCN1 (configuration not stated) | inconclusive: 12.6 µM [inhibitor, partial curve, poor fit] |
| CC(=O)Oc1ccc2cc(-c3ccccc3)c(=O)oc2c1 | inconclusive: 15.8 µM [inhibitor, partial curve, poor fit] |
| COc1cc(-c2nnn(CC(=O)Nc3ccc(OC(F)(F)F)cc3)n2)cc(OC)c1OC | inconclusive: 8.91 µM [inhibitor, partial curve, poor fit] |
| CC1CCC(NC(=O)c2ccc3c(c2)N(Cc2ccccc2)C(=O)c2ccccc2S3=O)CC1 (configuration not stated) | inactive |
| N#C/C(=C\c1coc2ccccc2c1=O)c1nc2ccccc2[nH]1 | inconclusive: 31.6 µM [inhibitor, single point] |
| CNc1c(NC(=O)c2ccc(Cl)cc2)c(=O)oc2ccccc12 | inactive |
| COc1ccc2c(=O)c(Oc3ccccc3OC)c(C)oc2c1 | inconclusive: 39.8 µM [inhibitor, single point] |

| SMILES | Potency |
| --- | --- |
| C/C(=N\Nc1ccc(C(=O)O)cc1)c1ccc2c(c1)Nc1ccccc1S2 | inconclusive: 12.6 µM [inhibitor, partial curve, poor fit] |
| Cc1sc(NC(=O)CC(C)(C)C)c(C#N)c1C | inactive |
| COc1ccc(CNC(=O)c2cnc3sc(N4CCCC4)nn3c2=O)cc1OC | inconclusive: 15.8 µM [inhibitor, partial curve, poor fit] |
| COc1cccc(/C=C2\Oc3cc(OS(=O)(=O)c4ccccc4)ccc3C2=O)c1 | inactive |
| CCc1ccc2c(c1)c(=O)c(S(=O)(=O)c1ccc(F)cc1)cn2CC(=O)Nc1ccc(C)cc1C | inconclusive: 1 µM [inhibitor, partial curve, poor fit] |
| CCCn1ccc2c(OCC(=O)NCc3ccc(C)cc3)cccc2c1=O | inconclusive: 31.6 µM [inhibitor, partial curve, poor fit] |
| CCC(=O)N1CCc2c(sc3ncnc(NCc4ccccn4)c23)C1 | active: 28.2 µM |
| C=CCO[C@@H]1CCN2C(=O)c3cc(-c4ccccc4F)ccc3NC(=O)[C@H]12 | inactive |
| COc1ccccc1C(=O)Oc1ccc2c(=O)c(-c3ccccc3OC)c(C)oc2c1 | inconclusive: 35.5 µM [inhibitor, partial curve, poor fit] |
| Cc1cc(C)n(CC(=O)N2C[C@@H](CO)[C@H](c3ccccn3)C2)n1 | inactive |
| Cc1ccc(C=Nc2ccc(C)c(N=Cc3ccc(C)s3)c2)s1 | inconclusive: 8.91 µM [inhibitor, full curve, poor fit] |
| COc1ccc(-c2nccn3cc(C(=O)NCCN4CCCCC4)nc23)cc1 | active: 20 µM |
| CC(C)c1ccc(CCNC(=O)Cn2ncc3ccccc3c2=O)cc1 | inactive |
| CC(C(N)=O)N1CCn2nc(CCC(=O)N3CCOCC3)cc2C1 (configuration not stated) | inconclusive: 15.8 µM [inhibitor, partial curve, poor fit] |
| CCOC(=O)c1ccc(Nc2c(-c3ccc(O)c(OC)c3)nc3nc[nH]n23)cc1 | inconclusive: 15.8 µM [inhibitor, partial curve, poor fit] |
| Cc1cc(F)ccc1S(=O)(=O)NCC(c1ccco1)S(=O)(=O)c1cccs1 (configuration not stated) | inconclusive: 10 µM [inhibitor, partial curve, poor fit] |
| Cc1cn2cc(C(=O)N3CCCCC3c3ccc(F)cc3)ccc2n1 (configuration not stated) | inconclusive: 20 µM [inhibitor, single point] |
| COCCCNC(=O)c1oc2c(c1C)-c1nn(Cc3cccc(Cl)c3)cc1CC2 | inconclusive: 25.1 µM [inhibitor, partial curve, poor fit] |
| CC(C)c1nc2nccc(-c3ccc4c(c3)OCCCO4)n2n1 | active: 22.4 µM |
| COC(=O)/C(=C\c1ccc(OC(=O)c2ccccc2)cc1)C(C)=O | inconclusive: 15.8 µM [inhibitor, partial curve, poor fit] |
| COc1ccc(C2Cn3nnc(-c4nc(-c5ccccc5C)no4)c3CO2)cc1 (configuration not stated) | inactive |

Reference: PubChem BioAssay AID1347165 (National Center for Advancing Translational Sciences (NCATS), 2019)
